The supplement of paper PMC4996465

Key:
KB3-1 = experiment: viability (% of DMSO control); higher = more viable cells
Protocol: (§1)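 Eleven-dose screen of the NCATS MIPE 3 library on cells without co-treatment; CellTiter-Glo after 48 h, as % of DMSO wells.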

Nalm-6 = experiment: as above
Protocol: as §1

| Structure (SMILES) | viability (KB3-1; 0.00078 µM) [%] | viability (KB3-1; 0.00234 µM) [%] | viability (KB3-1; 0.00702 µM) [%] | viability (KB3-1; 0.0211 µM) [%] | viability (KB3-1; 0.0632 µM) [%] | viability (KB3-1; 0.19 µM) [%] | viability (KB3-1; 0.569 µM) [%] | viability (KB3-1; 1.71 µM) [%] | viability (KB3-1; 5.12 µM) [%] | viability (KB3-1; 15.4 µM) [%] | viability (KB3-1; 46.1 µM) [%] | viability (Nalm-6; run: 1, 0.00078 µM) [%] | viability (Nalm-6; run: 1, 0.00234 µM) [%] | viability (Nalm-6; run: 1, 0.00702 µM) [%] | viability (Nalm-6; run: 1, 0.0211 µM) [%] | viability (Nalm-6; run: 1, 0.0632 µM) [%] | viability (Nalm-6; run: 1, 0.19 µM) [%] | viability (Nalm-6; run: 1, 0.569 µM) [%] | viability (Nalm-6; run: 1, 1.71 µM) [%] | viability (Nalm-6; run: 1, 5.12 µM) [%] | viability (Nalm-6; run: 1, 15.4 µM) [%] | viability (Nalm-6; run: 1, 46.1 µM) [%] | viability (Nalm-6; run: 2, 0.00078 µM) [%] | viability (Nalm-6; run: 2, 0.00234 µM) [%] | viability (Nalm-6; run: 2, 0.00702 µM) [%] | viability (Nalm-6; run: 2, 0.0211 µM) [%] | viability (Nalm-6; run: 2, 0.0632 µM) [%] | viability (Nalm-6; run: 2, 0.19 µM) [%] | viability (Nalm-6; run: 2, 0.569 µM) [%] | viability (Nalm-6; run: 2, 1.71 µM) [%] | viability (Nalm-6; run: 2, 5.12 µM) [%] | viability (Nalm-6; run: 2, 15.4 µM) [%] | viability (Nalm-6; run: 2, 46.1 µM) [%] |
| --- | --- | --- | --- | --- | --- | --- | --- | --- | --- | --- | --- | --- | --- | --- | --- | --- | --- | --- | --- | --- | --- | --- | --- | --- | --- | --- | --- | --- | --- | --- | --- | --- | --- |
| CC(C)(C(=O)NCC(F)(F)C(F)(F)F)C(=O)N[C@@H]1C(=O)Nc2ccccc2-c2ccccc21 | 93.4 | 103 | 97.8 | 98.2 | 84.6 | 70.2 | 92.8 | 97.2 | 98.5 | 90.4 | 77.8 | 97.7 | 104 | 107 | 105 | 105 | 105 | 108 | 107 | 106 | 106 | 102 | 103 | 103 | 109 | 106 | 107 | 106 | 97.4 | 110 | 99.5 | 106 | 109 |
| CC(C)(O)CCc1ccc(OCc2cc(-c3cccc(OC(F)F)c3)c3ncccc3c2)cc1 | 108 | 107 | 108 | 111 | 109 | 106 | 111 | 108 | 110 | 100 | 32.2 | 103 | 104 | 110 | 114 | 111 | 111 | 118 | 123 | 117 | 121 | 6.18 | 104 | 106 | 102 | 112 | 105 | 105 | 108 | 112 | 108 | 113 | 2.36 |
| Cc1cnc(Nc2ccc(OCCN3CCCC3)cc2)nc1Nc1cccc(S(=O)(=O)NC(C)(C)C)c1 | 101 | 110 | 100 | 101 | 97 | 107 | 81.4 | 99.6 | 102 | 101 | 86.4 | 103 | 106 | 106 | 111 | 100 | 115 | 110 | 101 | 101 | 99.9 | 30 | 99.8 | 101 | 103 | 105 | 100 | 104 | 103 | 100 | 107 | 94.8 | 22.2 |
| Cc1cc(SCc2sc(-c3ccc(C(F)(F)F)cc3)nc2C)ccc1OCC(=O)O | 92.8 | 104 | 97.6 | 106 | 101 | 102 | 102 | 98.7 | 100 | 106 | 88 | 105 | 106 | 113 | 107 | 101 | 114 | 118 | 119 | 119 | 120 | 77.6 | 107 | 103 | 98.2 | 105 | 107 | 105 | 106 | 115 | 116 | 111 | 82.7 |
| CC1=CC=CC=C1N2\C(=N/C3=C(C(=CC=C3)C)C2=O)C[N]4C=NC5=C4N=CN=C5N | 105 | 109 | 111 | 109 | 110 | 113 | 107 | 111 | 111 | 104 | 85.6 | – | – | – | – | – | – | – | – | – | – | – | – | – | – | – | – | – | – | – | – | – | – |
| Cc1cccc(-c2[nH]c(C(C)(C)C)nc2-c2ccc3nccnc3c2)n1 | 102 | 102 | 102 | 99.8 | 107 | 109 | 103 | 102 | 98.5 | 100 | 81.7 | 104 | 106 | 106 | 112 | 116 | 108 | 111 | 110 | 116 | 115 | 85.7 | 110 | 110 | 101 | 106 | 111 | 107 | 106 | 116 | 109 | 115 | 101 |
| CCC(C)N(C)C(=O)c1cc2ccccc2c(-c2ccccc2Cl)n1 (stereo unspecified) | 98 | 93.1 | 99.6 | 95.4 | 97.8 | 94.6 | 98.6 | 98.2 | 98.1 | 95.8 | 62.6 | 95.6 | 105 | 97 | 103 | 111 | 103 | 106 | 100 | 97.7 | 95.4 | 67.2 | 94.7 | 92.8 | 97.4 | 93 | 98.7 | 100 | 98.3 | 105 | 96 | 94.5 | 67.5 |
| CCN(CC)CCCC(C)Nc1nc(C)cc(Nc2ccc3nc(C)cc(N)c3c2)n1 (stereo unspecified) | 98.3 | 96.9 | 98.3 | 95.7 | 97.2 | 95.6 | 92.7 | 89.6 | 90.8 | 93.4 | 23.7 | 96.6 | 98.8 | 98.9 | 96.8 | 103 | 107 | 92.1 | 93.2 | 90.4 | 90 | 48.4 | 104 | 97.3 | 105 | 92.4 | 99.9 | 91.9 | 98.4 | 97.5 | 97.5 | 94.8 | 53.7 |
| CCOC(=O)C(C)OC1=CC=CC2=C1\C=C/N(CC(=O)NC3=CC=C4OCCOC4=C3)C2=O (stereo unspecified) | 103 | 108 | 69.6 | 98.8 | 97.9 | 100 | 101 | 106 | 109 | 107 | 99.6 | 87 | 98.4 | 5.91 | 103 | 100 | 103 | 100 | 97 | 107 | 107 | 68.6 | 90.7 | 97.9 | 5.12 | 98.1 | 99.7 | 99.6 | 106 | 94.2 | 97.3 | 99.1 | 101 |
| COc1ccccc1[C@H](c1cccc2ccccc12)[C@@](C)(C#N)C(=O)N1CCC(c2cccc(C(F)(F)F)c2)CC1 | 105 | 103 | 104 | 98.8 | 102 | 105 | 104 | 98 | 94.1 | 78.1 | 74.4 | 94.1 | 96.9 | 106 | 103 | 91.5 | 106 | 100 | 98.4 | 98.5 | 80.8 | 83.4 | 95.5 | 101 | 102 | 100 | 96.2 | 97.1 | 94.9 | 96.6 | 82.4 | 84.3 | 93.8 |
| COC1=CC(=C2C(=O)N(COC/3=C/C(=O)N4\C=C/C=C(OCCN5CCCCC5)\C4=N3)S(=O)(=O)C2=C1)C(C)C | 95.5 | 97.1 | 99.9 | 103 | 107 | 103 | 103 | 103 | 102 | 105 | 3.12 | 107 | 109 | 110 | 119 | 122 | 115 | 121 | 109 | 106 | 108 | 0.643 | 105 | 109 | 100 | 110 | 105 | 107 | 105 | 110 | 103 | 101 | 0.735 |
| COc1ccc(-c2oc3cc(OC)ccc3c2C(=O)c2ccc(C#N)cc2)cc1 | 92.6 | 103 | 99 | 102 | 110 | 102 | 103 | 105 | 100 | 91.8 | 89.9 | 99.3 | 98.8 | 104 | 115 | 117 | 124 | 115 | 123 | 123 | 121 | 34.5 | 103 | 105 | 105 | 104 | 109 | 104 | 107 | 103 | 114 | 105 | 95.9 |
| COc1ccc(COc2cc3oc(=O)c4cc(C(C)O)ccc4c3cc2OC)cc1 (stereo unspecified) | 107 | 108 | 109 | 109 | 109 | 109 | 104 | 105 | 99.4 | 106 | 86.4 | 118 | 106 | 106 | 115 | 116 | 114 | 119 | 117 | 115 | 109 | 70.5 | 109 | 100 | 104 | 102 | 103 | 104 | 102 | 107 | 99.1 | 103 | 58.6 |
| COc1ccc2c(c1)CC[C@@H](CN(C)CC(=O)O)[C@H]2c1ccccc1 | 102 | 111 | 104 | 99.8 | 98 | 106 | 110 | 106 | 108 | 106 | 106 | 97.6 | 106 | 111 | 117 | 113 | 103 | 109 | 102 | 111 | 109 | 114 | 103 | 107 | 105 | 110 | 99.9 | 99.4 | 102 | 106 | 102 | 102 | 106 |
| C[C@@H](N)C1CC[C@@H](CC1)C(=O)NC2=CC=NC=C2 (stereo partly specified) | 91.7 | 93.4 | 92.1 | 92.4 | 95.4 | 92.9 | 91 | 103 | 99.3 | 96.5 | 90.6 | 96 | 94.8 | 103 | 107 | 110 | 111 | 110 | 109 | 108 | 112 | 89.7 | 101 | 111 | 107 | 112 | 108 | 107 | 111 | 104 | 107 | 117 | 117 |
| C[C@H](NC(=O)Cc1cc(F)cc(F)c1)C(=O)N[C@@H]1C(=O)N(C)c2ccccc2-c2ccccc21 | 93.2 | 97 | 93.8 | 77.9 | 93 | 96.3 | 101 | 97.4 | 98.1 | 99.1 | 81 | 90.3 | 93.3 | 96.8 | 95 | 97.1 | 105 | 110 | 105 | 106 | 102 | 74.3 | 95.3 | 105 | 96.7 | 98.8 | 96.8 | 92.4 | 94.5 | 103 | 101 | 99.2 | 83.7 |

Viability of KB3-1 and Nalm-6 cells after 48 h of drug alone (CellTiter-Glo), 11 doses over about 4.5 log units. % of DMSO wells, lower = more cell loss; AC50 from the fitted curve, lower = more potent. No active / inactive call. Nalm-6 was screened in two runs. AC50 is listed only for well-fitted inhibitory curves. KB3-1 is a HeLa-derived carcinoma line, Nalm-6 a B-cell precursor leukaemia line.
